Test results published in PMC10726135.
The list shows a part of the results. At the low end of the ranking the order means little. Measured with an extract: partners may take part in the binding.

These sequences were tested against T1, HNF4alpha2 (COS-7 nuclear extract) (UniProt P41235) (assay: protein-binding microarray). Conditions: COS-7 nuclear extract on double-stranded Agilent 4x180k PBM; binding buffer, salt, pH and temperature not given; high values mean tight binding; double strand, one strand shown; sequences stand for … in …GCCTAGGGAGATTAGAGTATCGGTCGA.
T1 sequence: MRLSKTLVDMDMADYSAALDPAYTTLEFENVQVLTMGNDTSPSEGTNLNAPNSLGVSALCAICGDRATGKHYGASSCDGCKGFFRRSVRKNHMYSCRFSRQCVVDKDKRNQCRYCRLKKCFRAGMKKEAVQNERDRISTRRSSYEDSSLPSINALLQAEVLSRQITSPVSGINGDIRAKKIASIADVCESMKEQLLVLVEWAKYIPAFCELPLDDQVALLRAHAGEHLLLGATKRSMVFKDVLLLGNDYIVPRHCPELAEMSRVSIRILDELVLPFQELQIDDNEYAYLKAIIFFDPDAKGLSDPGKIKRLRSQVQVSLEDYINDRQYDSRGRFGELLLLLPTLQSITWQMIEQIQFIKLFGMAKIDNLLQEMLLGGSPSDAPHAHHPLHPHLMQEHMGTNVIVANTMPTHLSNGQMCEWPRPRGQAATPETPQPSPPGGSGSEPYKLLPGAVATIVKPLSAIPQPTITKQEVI

Sequence	binding signal (log2 normalized intensity)
ACAGGAGATCAGATGGGGTGAACTTTGGAC	8.41
CAATGAACAAAGGTCGGTGGTATGTGTGTG	3.25
TGGTGCTTTTGATATTGTTGTAAAGCAGTG	1.91
ATGAGTGACCTTTATCCAGTTCTGTGTACA	3.17
AAAGCTGGCTGGCGGCTAGTGTACAGGTGA	1.06
ACAGAGAAGGCCCTGAACTCCCAGCCTCCA	-1.21
TTTCTCTCCTAAGCAGGACAGCAGAGTGGA	-0.691
AAAGCTTTTTGATTGCTTATAGCTTGCTTC	-1.23
GCCTTCCCCTGCCACTTTCACAAATCATTA	1.19
AGCTGGGCTATACAATTCCAGCAAGGATGG	-1.2
ATGCACTCATAACTAGGGTTCCAAGACCAA	-1.17
TATTTACATACCTTAGGCTGTGCATATTGG	1.25
TTCAAGCCTGAACAAACATGAGGGACTGGG	-1.07
GATTCCTCTTGAATTGGAAGGCAAAGTTCA	3.17
TGCCTGCCGGCTCTGAAGAGAACGGCTGAT	-1.07
TCCAGCTGTTGGTGACTGACCCTGATCCCT	2.81
GTGTTCCTTTTTCTGTTCAATGGTGCTTTT	2.2
TTAAGTTTTCGAGGAGTCAAAAGGTGTATG	1.31
GGTGAGCCATTGGCTGGGGTGTCGGCGAGT	-0.92
GAGTTTAGGGACCGCAAATAAAAGAGGGCC	-1.1
AGAGCACATTCTTCCATATAACCCTTGAAC	3.6
GCACAGCAGATGCTGGGCAAAGGGCAAGGC	3.03
CTCAACCTCCCCCTGGGGACAGGTGTTAAT	2.19
GATAACAGCACATTCCTTAACATGGTTTGC	0.97
TCCTCCTCCTGTTTGTATTCCTTGTCCTTG	2.28

Sequence	binding signal (log2 normalized intensity)
ATTTCACCTTTGGTCTTTGGTGAAACTCCA	2.57
GGGTTTGTTTTTTGCCCTTTGTACCCACAC	7.67
TTGTCCTATGACTCTCTCAACACTGGCTTC	0.184
TAGCCTCTGGGCTGGCTTTAGCTCAGCGGT	-1.19
ATCAAAGGCTTCTAGAAGAGGTTAAAGACC	1.01
TAACATCTTTTCTCAGTTAACTGGAATGAA	1.22
TGGCAGATTAGAGACCTCTAGACTCCAGCT	-1.12
AGAAAGAAACAGGGGATGTTGATTCCCCTG	-1.24
ATTTACTGAATGAATGTCCAACTTGCCCTG	1.64
CTCTGTTTGATCAGCTGGTCCTTCAAGTGT	1.96
GCATAACCAAACAGAGAGAAAGCAGTGACC	0.1
GTGCCCTTACATTTTGCTCTTTGTACCGTT	4.56
TTGATGGGCAGCGCGGCGCGCTGGGAAGGC	-1.01
CTGTGAGTCAGGTACCTGCTTCTGCCCCAG	1.3
TTGCATATGCCACAGGGCAAGACACCAAAG	-1.08
CCTCTGAAAACTTTTACTGGGAAGAGATAA	0.0146
AGCACAACCCGGGCGCACAAGATGCCGCCT	-1.08
GCAAAAATGCCAGGCATTTGCGATAATAGA	-1.13
TTAGCTATCAGTGTTGACCTCTGGACCTCA	6.97
GGAGAACAAAGTTCACCTTTCCCTTCTTCT	2.51
GAGAGAGAGAGAGGTGGGCAAAGGTCTCAA	2.55
TCACAAAGGGCTGAGGTTAAAGTCCACATT	7.04
GAATTCTCTAAGTAATCAATGGTTGCACTC	1.06
GATAACTGGGGGCAAAGGTTCACTTTGGGG	4.16
TTGGGGCTGATGTCTTTCTGGCCAGAGGGG	-0.225

Sequence	binding signal (log2 normalized intensity)
AGCAGCATAAAGGACTTTCAACCCTGTGAT	2.9
GCCTCTGGGCTTTGATGGACATTGCTGGTG	1.38
CTATCACCTCTCCCACCTGAATTATTGTAT	2.07
CAGGGTCAGAAGGGAGGTAGTCGCCCTCCG	-0.764
AAATAAAGCAGCAAACCAGATAAGACTATC	-1.12
GGGAGCAGGCAGATTTGACCTACGGACCAT	4.17
GGAGACCTGAAACTAGACCAAGAAGACTTT	-0.974
AAGCAAGACTGCAGGGTCATAGCTTTATCT	-1.01
CAATAAGCCAGTGAACCTTTGTCCCGTTAT	3.39
GTGGCCATGATGCCATCTGGTGAAGCTTAT	-0.477
AGTCCGTTACAGACAGGCAGCCCCTGGAAA	-0.0984
CTCTGTATTGTAAAAGAAAGTGAGCAGGCA	0.314
CCAAAATGGCGACAAGAGTGACCTCTGGTC	4.79
TGTGTTGACCGATAACCCTCCTGAACATAA	0.402
AGGCGGAAGTAAGGCGGAAGTACTGCCCTT	1.4
CATCACATTCCCCAGGCAATCTTCCAGTCC	0.836
TTCACACTCCCACCAGCATGGTGATGCTAG	-1.13
AACTACAAACGGATATTTGATCAAAGGTCA	5.55
ACGCAGGCCTGCAAGCTCCTGGTTGGGGCC	-1.16
TGTTCATTCATTCACCTTTCGCCCTTTGTC	3.65
CTCACAGAAAGAAGAGACAGCTGGGCCCTG	-1.13
GCCAGATAGCCACTGGGGTCATGGAGCTGG	0.893
CCATCTTGCCCACCAATGATCAAAGGTTAG	4.03
TGGGGGGTAGCCACTGACAGGAGGTATGCC	-1.11
AGGGTGGAAGTCCAACCTTTGCTCACTTGG	3.61

Sequence	binding signal (log2 normalized intensity)
GACAAATTCCTGGGAACTGCGGACATAGCT	-1.14
ACCTAGAGCTTCAGACGCCCTATGGCGTCC	-1.2
TCCTTTGGATCATGTGTCTGAGCAAGTTTC	2.08
CATAGGAGAAACACATAAACCCTGACCCTC	2.03
AATTAGGGAGTAGGGACAGCTAGTCTAGAC	-1.1
TCAAGGAAGAGAACTCCCTATCCCCAGATT	2.35
CAGGAGCAGAAGCAGGCCTCGGGCCTGCGA	-1.05
GCAGCCGCCGGAGAATTAAACTGCCGCGCC	-1.14
ACTTAAAAAAATCTAGTTTAGGATTTTAGC	-1.2
TAAGGGAGATGAAAGGGGCCTCAGAGAAAG	-1.12
ATTCTCTAGAATCTAGAAAATGCAAGGAAA	-1.11
TCTTTGAATGGACTCTGAGACCTGTGATGG	2.84
ATTTACAAACAAATGCAAAACTGGCAAAAC	-1
CCAGGTCCACAGTGCACATTCCAGAGAAAT	-1.14
TACTTTTCAGGAACTGTTCTTTGACTCAGT	1.51
CAGCAACCGCCTACCTTTGGACTTCTCATT	3.29
TTGGACTCTGCCACTGGTTTGCACACACCA	1.09
CTGTGGGGAGGTTATCTCGGGGATGGCATG	0.755
TGACCCCTCCCCTCCCCCTTGGTGTTTAAA	5.37
TACTGGTTGAATGGACGGACAGGTAACGTA	0.856
ATCTTTTTAGCAACTGGTATGTTAGATTAG	1.18
TGTGTGTAACATTTGACTTCCCCAAAACTT	2.22
GACAAATCTCACTGATAGTCTCCTATCAAG	-1.12
GTCCTGCACATGAATGATCAAAGGTTGGTT	3.66
TGTGCTAGATACTGGAGATATGTTGCTGGA	0.886

Sequence	binding signal (log2 normalized intensity)
GTGACTTGAAAGGGACTTAGAATCGAATTG	0.297
TAACATTAATGGAAATGCCTAGGATACCTA	-1.02
CAGCTGTTATGAGTCTGTTGTCTAACATTT	-0.782
AGGGCAAAGGTCAGAGGCTGATTTCTCAGG	4.84
AGAAGACCAAACAACCAGGGAGATGTGAGC	-1.15
AACTTGGTTACAGGACCAGGTGTAGATAAA	0.142
CAGTGCAAACACACAATATTGACATTCCAG	-0.784
CGGCGGAGCCTCCGGCCTGAGGCAGGATCA	-1.13
AAGACTAACCTTTGACCATCCACGGGTCCA	4.65
GCAGTGAAATTCTGGCCAACCAGCACTTCT	-0.995
GGCCACAGACCCCCGGTGGAGCAGCTTTCT	1.36
CAGAGCAAAGGGCTTATTTTAGGAGCCTCC	-1.1
CTGAATAAAACAAACTCATTTTGATCTTTG	2.24
CAGAGAAGCCGTGGTGCTGTCCAAGGTGCT	-1.12
TCAGCCATCTCCCCAGGGAGGCCTGGGCCC	-1.16
CCTGCTGCTGGCTGGCGGCCTTTGGGTCCC	1.13
GTAGGCGTATGCTGTACAGATCTCTACGAC	-1.07
AGAACTGTTAACTTTGTACTCAATTTGGAT	1.68
AAGGACAAAGGTCAACAAACGCCCCTTGGA	5.06
AACTGTCACAAGAAAGGCAGAAAACTCAGA	-0.803
AATCTCTCAAGTTGCCCGCTTGGCCCTCTT	1.51
TAAACCCGATCCTTACTATTAGGTCTTTGA	1.78
AGCACATCACACAGGCATATTTGGTTAGCT	-0.688
CAGTATTAATGTCAAACTGATCAGAAGTGG	1.02
CCTTAAGAGCAGTCTGCTCAAGTCTTTTAG	-0.799

Sequence	binding signal (log2 normalized intensity)
GATAAGAACTGCAAGGCTAGAGATTCTCCC	-1.18
GTTGGGCAAGACTCGTGAAAAGAGTGATCT	0.206
GCCAGCAACGGTGAGTCAAGCACTTCTCAC	-1.07
GTTTTTCTTCAAGGAGGTGAACTTTGAGAC	6.13
CAAAACCAGTTTTTCCAGCAGCGGATCCAA	-1.08
TTTCTCAGCCCCATCCCCCAATACACACAC	5.06
CTTAAATGAGATAAGATGAAGCTCTCAGAA	-1.04
AACATGGATTTTGGAGCCAAACAGGTGTGG	1.06
GTTTGCACAAAGGGTTATGGGAAGTGGGGT	1
TCCAAAGGAGTGGTCCTGCTCAAAGGGGAA	-1.12
TGCCAAGTGATAAGGAACCTAGGAAATCAA	-1.12
GTCTGCTATTATCATCTCTTGTCTGGAATA	1.29
GAGAAGTTGCTCTTTACACCATTGCAAGGA	-0.941
ATTCAAAGCAGAGGTGACCCTTGCACTCAT	6.29
CTTTGCCCTCCCTAAATCCAGAGGTATTTG	1.88
GTGGGAGGATCGCTTGAGCCTGGGAGGCAA	-1.14
AGCAATACATTGAACTTTGAACACCTCTTC	5.41
CTTACCTGCCAAATATTGGGCAATGCTAGG	-1.2
CCTAGCCCTCTTTCAAAGACAAATATCGAC	-0.714
AGCAGCTACATAAGGGTAGAGACCTTTGTT	2.14
